A value given as a limit tells only on which side of the number the result lay.

The test system of this experiment is M. Tuberculosis Erdman or H37Rv vs VERO or HepG2 cells. The experiment is described as follows: Selectivity Index (mammalian cell IC50 / bacterial MIC). Details: species or system Mycobacterium tuberculosis.
`CN(C)C[C@H]1CN(c2ccc(-c3ccc(-c4nnn(C)n4)nc3)c(F)c2)C(=O)O1` [AKG-1]: the “Selectivity Index (SI) H37Rv /HepG2” value came to 14.5 and the “Selectivity Index (SI) H37Rv /VERO” value is on record as <14.1.

For the compound `CCN(CC)C[C@H]1CN(c2ccc(-c3ccc(-c4nnn(C)n4)nc3)c(F)c2)C(=O)O1` [AKG-2], the “Selectivity Index (SI) H37Rv /HepG2” value turned out to be 3.1 and the “Selectivity Index (SI) H37Rv /VERO” value is on record as <8.5. In the same order, the values of `Cl.Cn1nnc(-c2ccc(-c3ccc(N4C[C@H](CN)OC4=O)cc3F)cn2)n1` [AKG-3] are 353.3 and 296.7. The like results for `CN(C)CCCC(=O)OC[C@H]1CN(c2ccc(-c3ccc(-c4nnn(C)n4)nc3)c(F)c2)C(=O)O1` [AKG-5] were, in that order, 30.8 and 32.5. The like results for `CN(C)CCC1CCN(C[C@H]2CN(c3ccc(-c4ccc(-c5nnn(C)n5)nc4)c(F)c3)C(=O)O2)CC1` [AKG-6] were, in that order, 1.9 and <3.4. On to `CCN(CC)CCOC[C@H]1CN(c2ccc(-c3ccc(-c4nnn(C)n4)nc3)c(F)c2)C(=O)O1` [AKG-7], for which the “Selectivity Index (SI) H37Rv /HepG2” value worked out at 1.4 and the “Selectivity Index (SI) H37Rv /VERO” value is <13.0.

As for `CCN(CC)CCNC[C@H]1CN(c2ccc(-c3ccc(-c4nnn(C)n4)nc3)c(F)c2)C(=O)O1` [AKG-9], the “Selectivity Index (SI) H37Rv /HepG2” value was determined as 3.5 and the “Selectivity Index (SI) H37Rv /VERO” value is <17.4. The like results for `CN(C)CCC1CCN(c2ccc(-c3ccc(N4C[C@H](CO)OC4=O)cc3F)cn2)CC1` [AKG-11] were, in that order, 10.7 and 8.0. The like results for `CN(C)CCNc1ccc(-c2ccc(N3C[C@H](CO)OC3=O)cc2F)cn1` [AKG-12] were, in that order, 16.9 and 22.3. Consider `CCN(CC)CCNc1ccc(-c2ccc(N3C[C@H](CO)OC3=O)cc2F)cn1` [AKG-13], for which the “Selectivity Index (SI) H37Rv /HepG2” value is <4.0 and the “Selectivity Index (SI) H37Rv /VERO” value is reported as <11.7. In the same order, the values of `CCN(CC)CCCNc1ccc(-c2ccc(N3C[C@H](CO)OC3=O)cc2F)cn1` [AKG-15] are <4.5 and <19.5.

In the case of `Cl.Cn1nnc(-c2ccc(-c3ccc(N4C[C@H](CNC(=O)CCN)OC4=O)cc3F)cn2)n1` [AKG-19], the “Selectivity Index (SI) H37Rv /HepG2” value is on record as 5.3 and the “Selectivity Index (SI) H37Rv /VERO” value is >31.3. Consider `CCN(CC)CCC(=O)OC[C@H]1CN(c2ccc(-c3ccc(-c4nnn(C)n4)nc3)c(F)c2)C(=O)O1` [AKG-20], for which the “Selectivity Index (SI) H37Rv /HepG2” value is 30.2 and the “Selectivity Index (SI) H37Rv /VERO” value is given as >500. On to `CN(C)CCn1nnnc1-c1ccc(-c2ccc(N3C[C@H](CO)OC3=O)cc2F)cn1` [AKG-21], for which the “Selectivity Index (SI) H37Rv /HepG2” value is <19.5.

For the compound `Cl.NCCn1nnnc1-c1ccc(-c2ccc(N3C[C@H](CO)OC3=O)cc2F)cn1` [AKG-22], the “Selectivity Index (SI) H37Rv /HepG2” value was found to be 34.4 and the “Selectivity Index (SI) H37Rv /VERO” value is reported as 115.4. In the same order, the values of `Cl.NCCn1nnc(-c2ccc(-c3ccc(N4C[C@H](CO)OC4=O)cc3F)cn2)n1` [AKG-23] are 29.2 and >1000. The like results for `CCN(CC)CCn1nnc(-c2ccc(-c3ccc(N4C[C@H](CO)OC4=O)cc3F)cn2)n1` [AKG-24] were, in that order, 11.4 and 31.3. Regarding `CN(C)CCCn1nnc(-c2ccc(-c3ccc(N4C[C@H](CO)OC4=O)cc3F)cn2)n1` [AKG-25], the “Selectivity Index (SI) H37Rv /HepG2” value was 9.4 and the “Selectivity Index (SI) H37Rv /VERO” value was found to be 182.0. `CCN(CC)CCCn1nnc(-c2ccc(-c3ccc(N4C[C@H](CO)OC4=O)cc3F)cn2)n1` [AKG-26]: the “Selectivity Index (SI) H37Rv /HepG2” value came out at 4.5 and the “Selectivity Index (SI) H37Rv /VERO” value is 64.3. The like results for `Cl.NCCCn1nnc(-c2ccc(-c3ccc(N4C[C@H](CO)OC4=O)cc3F)cn2)n1` [AKG-27] were, in that order, 18.0 and 11.2.

Turning to `CN(C)CCn1nnc(-c2ccc(-c3ccc(N4C[C@H](CN)OC4=O)cc3F)cn2)n1.Cl` [AKG-28], the “Selectivity Index (SI) H37Rv /HepG2” value is 893.3 and the “Selectivity Index (SI) H37Rv /VERO” value turned out to be 5533.3. Regarding `Cl.Cl.NCCn1nnc(-c2ccc(-c3ccc(N4C[C@H](CN)OC4=O)cc3F)cn2)n1` [AKG-29], the “Selectivity Index (SI) H37Rv /HepG2” value turned out to be 595.2 and the “Selectivity Index (SI) H37Rv /VERO” value turned out to be 879.2. On to `CN(C)CCCn1nnc(-c2ccc(-c3ccc(N4C[C@H](CN)OC4=O)cc3F)cn2)n1` [AKG-30], for which the “Selectivity Index (SI) H37Rv /HepG2” value was 151.2 and the “Selectivity Index (SI) H37Rv /VERO” value was 884.0. With `CCN(CC)CCn1nnc(-c2ccc(-c3ccc(N4C[C@H](CNC(C)=O)OC4=O)cc3F)cn2)n1` [AKG-39], the “Selectivity Index (SI) H37Rv /HepG2” value was determined as 140.0 and the “Selectivity Index (SI) H37Rv /VERO” value turned out to be 402.0.

As for `CCN(CC)CCCn1nnc(-c2ccc(-c3ccc(N4C[C@H](CNC(C)=O)OC4=O)cc3F)cn2)n1` [AKG-40], the “Selectivity Index (SI) H37Rv /HepG2” value worked out at 226.0 and the “Selectivity Index (SI) H37Rv /VERO” value was >500.0.

For the origin of these results see patent publication US20230348447A1, “OXAZOLIDINONE COMPOUNDS, LIPOSOME COMPOSITIONS COMPRISING OXAZOLIDINONE COMPOUNDS AND METHOD OF USE THEREOF” (priority 2020, published 2023).
